Experimental data as given in ChEMBL document CHEMBL5308541, “MAIP: An Open-Source Tool to Enrich High-Throughput Screening Output and Identify Novel, Druglike Molecules with Antimalarial Activity” (ACS Med Chem Lett, 2023).
Hit rate of the full screen: of about 4,800 compounds, about 420 (8.8%) showed an effect of 50% or more. This is one part of the list.

system: Plasmodium falciparum; experiment: Confirmatory screen in NF54 nanoGlo assay, in single point, at 2uM, 72h; assay type: functional, Erythrocyte; details: timepoint 72 hour

Q: How did the “% Inhibition” value turn out when Cc1cc(N2CCC(NC3CCCC3Cc3ccc(F)cc3)CC2)nc(N)n1 (stereo not given) was run?
A: 96%

Q: For COc1ccc(-c2cc(-c3ccccc3O)n([C@@H]3C(=O)Nc4ccc(Br)cc43)n2)cc1, which “% Inhibition” value is on record?
A: 31%

Q: How did the “% Inhibition” value turn out when CCOc1cc2nccc(N3C[C@H]4CN(C)C[C@H]4C3)c2cc1OCC was run?
A: 98%

Q: How did the “% Inhibition” value turn out when Cc1cc(C)c(CN2CCN(C)CC2)cc1CNCCCn1ccnc1C was run?
A: 38%

Q: Which “% Inhibition” value does the source give for CCCN(CCN1CCN(CC)CC1)c1nc(-c2ccccn2)nc2c1CCC2 here?
A: 6%

Q: With Cc1noc(-c2ccnc(NC[C@@H](c3ccccn3)N3CCOCC3)c2)n1 as the compound, how does the “% Inhibition” value read?
A: 93%

Q: Which “% Inhibition” value does the source give for CCN1CCC(N2CCC(C(=O)NCCc3ccc(OC(F)(F)F)cc3)CC2)CC1 here?
A: 48%

Q: Which “% Inhibition” value does the source give for COc1ccc2c(C)cc(NCCCN3CCC[C@H](C(N)=O)C3)nc2c1 here?
A: 87%

Q: Which “% Inhibition” value does the source give for N[C@H]1CC[C@@H](NC2CCN(c3ccc(F)c(F)c3)CC2)CC1 here?
A: 45%

Q: With Cn1nnc(C(=O)N2CCCCC23CCCCCC3)n1 as the compound, how does the “% Inhibition” value read?
A: 68%

Q: Which “% Inhibition” value does the source give for Cc1cc(O)c(Cl)cc1-c1cccc2c(N)ccnc12 here?
A: 91%

Q: CN(c1ccccc1)c1ccc(CN2CCN([C@H]3CCNC3)CC2)cc1 was tested. Which “% Inhibition” value did it give?
A: 54%

Q: For CN1CCC(CNC2CC3CC(C2)N(C(=O)OC(C)(C)C)C3)CC1 (stereo not given), which “% Inhibition” value is on record?
A: 0%

Q: Which “% Inhibition” value does the source give for Cc1ccc2nc(NC[C@H]3CCN(C4CC4)C3)cc(C)c2c1 here?
A: 93%

Q: C[C@@H](c1cccc(-c2nc3cc(C#N)ccc3[nH]2)c1)N(C)C was tested. Which “% Inhibition” value did it give?
A: 18%

Q: COc1ccc2c(O)c(Br)c(C)nc2c1 was tested. Which “% Inhibition” value did it give?
A: 78%

Q: With Cc1sc2nc(-c3ccccn3)nc(NCCc3nccn3C)c2c1-c1ccccc1 as the compound, how does the “% Inhibition” value read?
A: 71%

Q: With Cc1nc(N2CCN(C)CC2)cc(N2CCN(S(=O)(=O)c3ccccc3C(F)(F)F)CC2)n1 as the compound, how does the “% Inhibition” value read?
A: 67%

Q: Which “% Inhibition” value does the source give for c1cc(CN2CCN(c3cc(N4CCN(Cc5ccncc5)CC4)ncn3)CC2)ccn1 here?
A: 0%

Q: Nc1ccnc2ccc(-c3ccc(C(=O)NCC4CCOCC4)cc3)cc12 was tested. Which “% Inhibition” value did it give?
A: 77%

Q: Which “% Inhibition” value does the source give for c1ccc(CNc2ccc(-c3noc(C45CCCN(CCC4)C5)n3)cn2)cc1 here?
A: 82%

Q: Which “% Inhibition” value does the source give for CCc1cc(NCCc2nc3cc(F)ccc3[nH]2)nc(-c2ccccn2)n1 here?
A: 11%

Q: N#Cc1ccc(N2C[C@H](COCC3CC3)C3(CCN(Cc4cccc(O)c4)CC3)C2)cc1C(F)(F)F was tested. Which “% Inhibition” value did it give?
A: 80%

Q: Which “% Inhibition” value does the source give for Cc1ccc2nccc(N3CCC(N4CCC(O)CC4)CC3)c2c1 here?
A: 10%

Q: For Cc1cnccc1N1CCCN(Cc2ccccc2OCCN2CCN(C)CC2)CC1, which “% Inhibition” value is on record?
A: 99%

Q: Cc1cnc(NC2CC(=O)N3CCCCC23)nc1NC1CC(=O)N2CCCCC12 (stereo not given) was tested. Which “% Inhibition” value did it give?
A: 3%

Q: How did the “% Inhibition” value turn out when CCN(C)CC1CCN(c2nc(NCCOC)nc(N3CCC(CN(C)CC)C3)n2)C1 (stereo not given) was run?
A: 1%

Q: Cc1c(CN2CCC(O)(Cn3ccnc3)CC2)[nH]c2c(Cl)cccc12 was tested. Which “% Inhibition” value did it give?
A: 96%

Q: COc1ccc2c(N3CC[C@H](CN4CCCC4)C3)ccnc2c1 was tested. Which “% Inhibition” value did it give?
A: 99%

Q: For CNC(=O)c1ccc(C(=O)Nc2nc(C3(C)CC3)ns2)cn1, which “% Inhibition” value is on record?
A: 1%

Q: With c1ccc2c(c1)CN(c1ncnc3[nH]ccc13)CC1(CCOCC1)O2 as the compound, how does the “% Inhibition” value read?
A: -10%

Q: For Cc1cnccc1NCCNCc1ccc(OC(C)C)c(Cl)c1, which “% Inhibition” value is on record?
A: 73%

Q: For Brc1cccc(NCCNC2CCN(Cc3cccnc3)CC2)c1, which “% Inhibition” value is on record?
A: 36%

Q: For O[C@H]1CCN(Cc2cccc(NCc3cn4ccnc4s3)c2)C1, which “% Inhibition” value is on record?
A: 38%

Q: How did the “% Inhibition” value turn out when Cc1cc(N2CC3COCCC3(C(=O)O)C2)nc2ccc(F)cc12 (stereo not given) was run?
A: -2%

Q: C[C@@H](c1ccc(-c2c(-c3ccccc3)ncn2CCCN(C)C)cc1)N(C)C was tested. Which “% Inhibition” value did it give?
A: 25%

Q: With Oc1ccc(OC(F)(F)F)cc1-c1ccc2nccn2n1 as the compound, how does the “% Inhibition” value read?
A: 83%

Q: With CN1CCC(N(C)C[C@H](Nc2ncnc3ccccc23)c2ccccc2)CC1 as the compound, how does the “% Inhibition” value read?
A: 99%

Q: For COc1ccc(-c2cccc3[nH]ccc23)nn1, which “% Inhibition” value is on record?
A: 12%

Q: For CC(C)c1ccc(CN2CCC[C@@](O)(CNCCN3CCNCC3)C2=O)cc1, which “% Inhibition” value is on record?
A: 26%

Q: CC(C)CCOc1ccc2[nH]c(-c3cc(N4CCC[C@@H]4CS(C)(=O)=O)ccn3)cc2c1 was tested. Which “% Inhibition” value did it give?
A: 99%

Q: With CC(C)(C)n1ncc2c(NCc3ccc4cccnc4c3O)ncnc21 as the compound, how does the “% Inhibition” value read?
A: 27%

Q: How did the “% Inhibition” value turn out when CCCN1CCC(Nc2cc(C)nc3ccccc23)CC1 was run?
A: 77%

Q: Oc1cccc2c1CCC[C@@H]2NCc1ccc2occc2c1 was tested. Which “% Inhibition” value did it give?
A: 29%

Q: How did the “% Inhibition” value turn out when c1cc(CNC2CCN(C[C@H]3CCOC3)CC2)c2cc[nH]c2c1 was run?
A: -7%

Q: How did the “% Inhibition” value turn out when O=C(NC1CCN(CCOc2ccc(Cl)cc2)CC1)c1c[nH]c2ccncc2c1=O was run?
A: 92%

Q: With Cc1nc2ccc(Oc3ccccc3)cc2c(O)c1CN(C)C1CCN(C)CC1 as the compound, how does the “% Inhibition” value read?
A: 22%

Q: With COc1ccc2cc(NC(=O)c3cc(-c4c(C)nn(C)c4C)[nH]n3)cnc2c1 as the compound, how does the “% Inhibition” value read?
A: 73%

Q: COc1ccc(OC2CCN(C3CCCC3)CC2)c(C(=O)NCc2cccc3[nH]ccc23)c1 was tested. Which “% Inhibition” value did it give?
A: 44%

Q: CCn1cc(-c2cccc(C(=O)N[C@@H](C)CN3CCc4ccccc4C3)c2)cn1 was tested. Which “% Inhibition” value did it give?
A: 38%

Q: With CNc1nc(C)cc(N[C@@H]2COc3ccccc3C2)n1 as the compound, how does the “% Inhibition” value read?
A: 41%

Q: For CN(C)CCN1CCC(CNCc2ccc3ncccc3c2)CC1, which “% Inhibition” value is on record?
A: 5%

Q: For CCNc1nc(C)cc(Nc2ccc(NC(=O)Nc3ccc(F)cc3F)cc2)n1, which “% Inhibition” value is on record?
A: 98%

Q: With CN1CCC(N(Cc2ccccc2)C(=O)c2cc3cnccc3[nH]2)CC1 as the compound, how does the “% Inhibition” value read?
A: 61%

Q: With Cc1ccc(-c2nnc(Nc3ccccc3)c3ccccc23)cc1CN1C(=O)c2ccccc2C1=O as the compound, how does the “% Inhibition” value read?
A: 49%

Q: For CN1CCC(Oc2ccc(NC(=O)c3cn4ccnc4s3)cn2)CC1, which “% Inhibition” value is on record?
A: 86%

Q: For c1ccc2c(CNCCC3CCN(c4ccncc4)CC3)csc2c1, which “% Inhibition” value is on record?
A: 77%

Q: For COc1cc2nc(NCC3(N4CCN(C)CC4)CCCC3)cc(C)c2cc1OC, which “% Inhibition” value is on record?
A: 84%

Q: How did the “% Inhibition” value turn out when NCCCCc1c(-c2cccnc2)[nH]c2c(Cl)cc(Cl)cc12 was run?
A: 55%

Q: How did the “% Inhibition” value turn out when O[C@@]1(c2c[nH]nn2)CCN(c2ccnc3cc(Cl)ccc23)C1 was run?
A: 59%

Q: How did the “% Inhibition” value turn out when OC[C@H](CNCc1cc2ccc(F)cc2[nH]1)c1ccccc1Cl was run?
A: 72%

Q: Cc1nc(-c2ccccn2)nc(NC2CCN(CC(F)F)CC2)c1C was tested. Which “% Inhibition” value did it give?
A: 35%

Q: CN(C)C1CCN(CCN[C@H]2CCc3ccc(F)cc32)CC1 was tested. Which “% Inhibition” value did it give?
A: 85%

Q: With CCOc1cc(C(=O)NC2CCN(CC3CCCC3)CC2)cc(-c2ccccc2)c1OC as the compound, how does the “% Inhibition” value read?
A: 95%

Q: How did the “% Inhibition” value turn out when COCCN1CCC[C@H](CNCc2cnn(-c3ccc4ccccc4c3)c2)C1 was run?
A: 12%

Q: How did the “% Inhibition” value turn out when O=C(Nc1cncnc1N1CCCC1)c1cc(F)cc2[nH]cnc12 was run?
A: 28%

Q: Which “% Inhibition” value does the source give for Cn1cc(-c2cncc(C(=O)NC3CCN(c4cccc(F)c4)CC3)c2)cn1 here?
A: 51%

Q: Which “% Inhibition” value does the source give for CCOc1ccc2nc(N3CCCN(Cc4c(C)nn(CC)c4C)CC3)nc(C)c2c1 here?
A: 17%

Q: With Clc1ccc2[nH]c3c(c2c1)CCCC3NC1CCN(C2CCOC2)CC1 (stereo not given) as the compound, how does the “% Inhibition” value read?
A: 81%

Q: For C[C@H]1CCCN(CCNC(=O)c2ccc(-c3ccc4c(=O)[nH]ccc4c3)cc2)C1, which “% Inhibition” value is on record?
A: 58%

Q: CCN1CCN([C@H]2CCN(c3ccnc4ccncc34)C2)CC1 was tested. Which “% Inhibition” value did it give?
A: 97%

Q: How did the “% Inhibition” value turn out when CN(Cc1cn(CC(N)=O)c2ccccc12)CC1CCN(CCc2ccc(F)cc2)CC1 was run?
A: 29%

Q: Cc1ccc(-c2cc(C(=O)NC3CCN(C4CCN(C)CC4)CC3)n[nH]2)cc1C was tested. Which “% Inhibition” value did it give?
A: 98%

Q: CCN(Cc1[nH]c2ccc(Cl)cc2c1C)CC1CCN(C2CCN(C)CC2)CC1 was tested. Which “% Inhibition” value did it give?
A: 89%

Q: For Brc1ccc2[nH]c3c(c2c1)CCCC3NC1CCc2[nH]cnc2C1 (stereo not given), which “% Inhibition” value is on record?
A: 97%

Q: Cc1ocnc1CNC[C@H](O)c1ccc(Cl)c(Cl)c1 was tested. Which “% Inhibition” value did it give?
A: 89%

Q: For Nc1ccc(Nc2ccc(F)cc2)c2ccncc12, which “% Inhibition” value is on record?
A: 44%

Q: CN(CCCn1ccnc1)c1ccnc2cc(Br)ccc12 was tested. Which “% Inhibition” value did it give?
A: 99%

Q: With Fc1ccc(-n2cc(CNCCC3CCN(c4ccncc4)CC3)cn2)cc1 as the compound, how does the “% Inhibition” value read?
A: 88%

Q: COCCN1CCC[C@@]2(CCN(c3ccnc4cc(Cl)ccc34)C2)C1 was tested. Which “% Inhibition” value did it give?
A: 99%
